34 variants from the RNAGym collection of RNA variant scans (doi:10.1093/nar/gkz1192) can be followed below.

Read counts are not given, so values of variants with three or more changes are uncertain.

To fix the notation:
B1: CPEB3 Ribozyme (parent)
chain: UAACAGGGGGCCACAGCAGAAGCGUUCACGUCGCAGCCCCUGUCAGAUUCUGGUGAAUCUGCGAAUUCUGCUGUAUAUCUC

Variants of B1 are the subject of the data set. As to the kind of experiment: self-cleavage, relative activity (ratio to wild type); higher = more cleavage; in vitro, sequencing. The method, boiled down:
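After error-prone PCR and barcoding, CPEB3 ribozyme mutant libraries were transcribed with T7 RNA polymerase at 37°C for 5 hours, then given 15 min with DNase I before an EDTA stop, and they cleaved during both steps. Reverse transcription with template switching preceded Illumina sequencing. Relative activity divides a variant's cleaved/total read fraction by the unmutated ribozyme's. At least 5 reads were required per variant, and three batches were averaged.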
Take UAACAUGGGGCCACAGCAGAAGCGUUCACGUCGCAGCCCCUGUCAGAUUCUGGUGACUCUGCGGAAUCUGCUGUAUAUCUC [G6U A57C A64G U66A]: the self-cleavage was 0.04.

Consider UAACAUGGGGCCACAGCUGAAGCGUCCACGUCGCAGCCCCUGUCAGAUUCUGGUGAAUCUGCGAAUUCUGCUGUAUAUCUC [G6U A18U U26C], for which the self-cleavage was 0.09. The same measure for UAACAUGGGGCCACAGCAGACGCGUUCACGUCGCAGCCCCUGUCAGAUUCUGGUGAAUCUGCGAAUUCUGCUGUAUAUCCC [G6U A21C U80C]: 0.09; for UAACAUGGGGCCACAGCAGAAUCGUUCACGUCGCAGCCCCCGUCAGGUUCUGGUGAAUCUGCGAAUUCCGCUGUAUAUCUC [G6U G22U U41C A47G U69C]: 0.07. UAACAUGGGGCCACAGCAGAAGCGUUCACGUCGCGGCCCCUGUCAGAUUCUGGUGAAUCUGCGAGUUCUGCUGUAUAUCUC [G6U A35G A65G]: the self-cleavage is 0.18. Under UAACAUGGGGCCACAGCAGAAGCGUCCACGUCGCAGCCCCUGUCAGAUUCUGGUGAAUCUGCGAUUUCUGCUGUAUAUCUC [G6U U26C A65U] stands 0.2; under UAACAUGGGGCCACAGCAGAAGCGUUCACGUCGCAGCCCCUGUCAGAUUCUGGUGUGUCUGCGGAUUCUGCUGUAUAUCUC [G6U A56U A57G A64G], 0.07; under UAACAUGGGGCCACAGCAGAAGCGUUCACGUCGCAGCCCCUGUCUGAUUCUGGUGAAUCCGCGAAUUCUGCUGUAUAUCUC [G6U A45U U60C], 0.07.

Turning to UAACAUGGGGCCACAGCAGUAGCGUCCACGUCGCAGCCCCUGUCAGAUUCUGGCGAAUCUGCGAAUUCUGCUGUAUAUCUC [G6U A20U U26C U54C], the self-cleavage turned out to be 0.26. The same measure for UAACAUGGGGCCACAGCGGAAGCGUUCACGUCGCAGCCCCUGUCAGAUUCUGGUGAAUCUGCGAAUUCUGGUGUAUACCUC [G6U A18G C71G U78C]: 0.08; for UAACAUGGGGCCACAGCAGAAGCUUUCACAUCGCAGCCCCUGUCAGAUUCAGGUGAAUCUGCGAAUUCUGCUGCAUAUCUC [G6U G24U G30A U51A U74C]: 0.06; for UAACAUGGGGCCACAGCAGAAGCGUUCACGUCGCAGCCCCUGUCAGGCUCUGGUGAAUCUGCGAAUUCUGCUGUAUAUCUC [G6U A47G U48C]: 0.05. Under UAACAUGGGGCCACAGUAGAAGCAUUCACGUCGCAGCCCCUGUCAGAUUCCGGUGAAUCUGCGAAUUCUGCUGUAUAUCUC [G6U C17U G24A U51C] stands 0.19.

For the variant UAACAUGGGGCCACAGCAGAAGCGUUCACGUCGCAGCCCCUGUCAGACUCUGGUGAAUCUGCGAAUUCUGCAGUAUAUCUC [G6U U48C U72A], the self-cleavage was 0.27. Under UAACAUGGGGCCACAGCAGAAGCGUUCUCGUCGCAGCCCCUGUCAGACUCUGGUGAAUCUGCGAAUUCUGCUGUAUAUCUC [G6U A28U U48C] stands 0.1; under UAACAUGGGGCCACAGCAGAAGCGUUCACGACGCAGCCCCUGUCAGAUUCUGGUGGAUCUGCGAAUUCCGCUGUAUAUCUC [G6U U31A A56G U69C], 0.11; under UAACAUGAGGCCACAGCAGAAGCGUUCACGUCGCAGCCCCUGUCAGAUUCUGGUGAAUCUGCGAAUUCUGCUGGAAAUCUC [G6U G8A U74G U76A], 0.05.

As to UAACAUGGGGCCACAGCAGAGGCGUUCACGUCGCAGCCCCUGUCAGACUCUGGUGGAUCCGCGGAUUCCGCUGUAUAUCUC [G6U A21G U48C A56G U60C A64G U69C], the self-cleavage came out at 0.07. UAACAUGGGGCCACAGCAGAAGCGUUCACGUCGCAGCCCCUGUCAGAUGCUGGUGAAUCUGCGAGUCCUGCUAUAUAUCUC [G6U U49G A65G U67C G73A]: the self-cleavage was 0.06.

As to UAACAUGGGGCCACAGCAGAAGCGUUCGCGUCUCAGCCCCUGUCAGAUUCUGGUGAAUCUGCGAAAUCUGCGGUAUACCUC [G6U A28G G33U U66A U72G U78C], the self-cleavage was found to be 0.06. On to UAACAUGGGGCCACAGCAGAAGCGUUCACGUCGCAGCCCCUGUCAGAUUCCGGUGAAUCUGCGAGUGCUGCUGUAUAUCUC [G6U U51C A65G U67G], for which the self-cleavage came out at 0.09.

UAACAUGGGGCCACAGCAGAAGCGUUCGCGUCGCAGCCCCUGUCAGUUUCUGGUGAAUCUGAGAAUUCUGCUGUAUAUCUC [G6U A28G A47U C62A]: the self-cleavage was determined as 0.18.

In the case of UAACAUGGGGCCACAGCAGAAGCGUUCACGCCGCAGCCCCUGUCAGAUUCUGGUGAAUCUGCGAGUUCUGCUGUAUAUCUC [G6U U31C A65G], the self-cleavage stood at 0.04. With UAACAUGGGGCCACAGCAGAAGCGUUCACGUCGCAGCCCCUGACAGAUUCAGGUGAAUCUGAGAAUUUUGCUGUAUAUCUC [G6U U43A U51A C62A C68U], the self-cleavage is 0.07. Under UAACAUGAGGCCACAGCAGAAGUGUUCACGUCGCAGCCCCCGUCAGACUCAGGUGAAUCUGCGAAUUCUGCUGUAUAUCUC [G6U G8A C23U U41C U48C U51A] stands 0.05; under UAACAUGGGGCCACAGCAGAAGCGUUCACGUCGCAGCCCCUGCCAGAUUCAGGCGAAUCUGCGAAUUCUGCUGUAUAUCCC [G6U U43C U51A U54C U80C], 0.16. With UAACAUGUGGCCACAGCAGGGGCGUUCACGUCGCAGCCCCUGUCAGAUUCUGGUGAAUCUGCGAAUUCUGCUGUAUAUCCC [G6U G8U A20G A21G U80C], the self-cleavage stood at 0.41. For the variant UAACAUGGGGCCACAGCAGAAGGGUUCACAUCGCGGCCCCUGUCUGAUUCUGGUGAGUCUGCGAAUUCUGCUGUAUAUCCC [G6U C23G G30A A35G A45U A57G U80C], the self-cleavage came to 0.03. Take UAACAUGGAGCUACAGCAGAAGCGUUCACGUCGCAGCGCCUGUCAGAUCCUAGUGAAUCUGCGAAUUCUGCUCUAUAUCUC [G6U G9A C12U C38G U49C G52A G73C]: the self-cleavage stood at 0.05.

Consider UAACAUGGGGCCACAGCAGUGGCGUUCACGUCGCAGCCCCUGUCAUAUUCUGGUGAUUCUGCGAAUUCUGCCGUAUAUCCC [G6U A20U A21G G46U A57U U72C U80C], for which the self-cleavage is 0.04. In the case of UAACAUGGGGCCACAGCAGGAGCGUUCACGUCGCAGCCCCUGCCAGAUUCUGGUGAAUCUGCGAAUUCUGCCGUAUAUCCC [G6U A20G U43C U72C U80C], the self-cleavage came out at 0.29. Under UAACAUGGGGCCACAGCAGAAGCGUUCACGUCGCAGCCCCUGUCAGAUUCUGGUGAAUCUGCGGAUUCUGCUGUACAUCUC [G6U A64G U76C] stands 0.31; under UAACAUGGGGCCACAGCAGUAGCGUUCACGUCGCAGCCCCUGUCAGAUUCUGGUGAGUCUGCGAAUUCUGCUGUAUAUCUC [G6U A20U A57G], 0.16; under UAACAUGGGGCCACAGCAGAAGCGUUCACGUCGCAGCCCCUGUCAGACCCUGGUGAAUCCGCGAAUUCUGCUGUAUAUCUC [G6U U48C U49C U60C], 0.23.
